One assay concerns the target T1, mature myostatin (human, UniProt O14793 267-375).
T1 sequence (looked up): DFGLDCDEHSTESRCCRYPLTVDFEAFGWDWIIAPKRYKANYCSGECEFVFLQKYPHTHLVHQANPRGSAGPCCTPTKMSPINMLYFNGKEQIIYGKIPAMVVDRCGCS
Briefly: SPR.

The target in assay [1] is T2, WAP, Kazal, immunoglobulin, Kunitz and NTR domain-containing protein 1 (WFIKKN1), recombinant human (human, UniProt Q96NZ8 20-548).
T2 sequence (looked up): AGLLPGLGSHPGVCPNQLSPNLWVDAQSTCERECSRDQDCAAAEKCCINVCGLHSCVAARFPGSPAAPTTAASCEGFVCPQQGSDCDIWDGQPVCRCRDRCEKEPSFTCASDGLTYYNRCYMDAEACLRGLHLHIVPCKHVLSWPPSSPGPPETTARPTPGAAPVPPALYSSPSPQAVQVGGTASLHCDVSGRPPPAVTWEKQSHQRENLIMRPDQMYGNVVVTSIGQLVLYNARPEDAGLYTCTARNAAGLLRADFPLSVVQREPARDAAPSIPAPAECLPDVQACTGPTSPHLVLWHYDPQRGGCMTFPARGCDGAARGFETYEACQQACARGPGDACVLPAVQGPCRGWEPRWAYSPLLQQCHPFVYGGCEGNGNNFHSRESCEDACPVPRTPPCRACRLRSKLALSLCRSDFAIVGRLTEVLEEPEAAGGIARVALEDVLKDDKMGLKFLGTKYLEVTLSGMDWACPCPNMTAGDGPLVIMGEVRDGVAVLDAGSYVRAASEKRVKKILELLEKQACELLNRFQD
The experiment in a line: SPR.

B1: recombinant myostatin prodomain (domain or fragment)
chain: not shown
In turn, B1 had an IC50 in the assay with mature myostatin of about 10 nM. Also, in assay [1], the Kd worked out at 20 nM.

These data come from publication PMC3906830 (The Febs Journal, 2013).
